The results in this text go back to PubChem BioAssay AID488969 (Vanderbilt High Throughput Screening Facility, 2010).

In all, about 110,000 compounds were measured (“z-score”: median about -0.1, highest 2% from about 2 on). Some of the results follow.

The test concerns the target Metabotropic glutamate receptor 8 (Rattus norvegicus) (UniProt P70579). The test is described as follows: rat mGluR8 modulators via GIRK flux, primary screen, cell-based, thallium flux, HTS (AID 488969). Conditions: HEK293 rat mGluR8, GIRK (G protein-gated inwardly rectifying potassium channel) thallium flux, FluoZin2; at 10 µM; stronger effect = higher value; submaximal glutamate (EC20) added with thallium.
Sequence of UniProt P70579 (P70579 whole entry, looked up): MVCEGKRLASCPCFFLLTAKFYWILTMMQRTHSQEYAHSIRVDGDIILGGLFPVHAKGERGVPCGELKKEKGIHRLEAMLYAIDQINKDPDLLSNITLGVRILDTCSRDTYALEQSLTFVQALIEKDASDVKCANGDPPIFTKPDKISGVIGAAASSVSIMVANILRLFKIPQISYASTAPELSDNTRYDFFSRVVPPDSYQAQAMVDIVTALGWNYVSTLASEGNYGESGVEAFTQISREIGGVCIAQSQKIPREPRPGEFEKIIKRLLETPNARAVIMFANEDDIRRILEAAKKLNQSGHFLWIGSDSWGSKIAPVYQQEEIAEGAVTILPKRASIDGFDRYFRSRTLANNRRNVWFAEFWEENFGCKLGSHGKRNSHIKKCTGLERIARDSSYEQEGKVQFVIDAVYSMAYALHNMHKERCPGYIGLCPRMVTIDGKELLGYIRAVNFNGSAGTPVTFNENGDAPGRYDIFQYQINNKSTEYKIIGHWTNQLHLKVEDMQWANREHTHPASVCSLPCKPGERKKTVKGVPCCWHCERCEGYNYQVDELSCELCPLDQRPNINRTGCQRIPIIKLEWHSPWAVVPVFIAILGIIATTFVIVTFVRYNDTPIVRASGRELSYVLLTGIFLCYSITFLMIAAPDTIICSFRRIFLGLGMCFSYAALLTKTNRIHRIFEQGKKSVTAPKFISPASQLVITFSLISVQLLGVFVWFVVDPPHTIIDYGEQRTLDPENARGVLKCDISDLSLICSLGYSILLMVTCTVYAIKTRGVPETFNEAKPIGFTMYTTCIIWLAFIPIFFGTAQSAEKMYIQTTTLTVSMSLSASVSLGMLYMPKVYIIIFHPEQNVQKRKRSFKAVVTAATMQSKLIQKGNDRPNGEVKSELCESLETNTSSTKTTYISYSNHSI
Take `CCOc1ccc(S(=O)(=O)Nc2ccccc2C(=O)N/N=C/c2c(OC)ccc3ccccc23)cc1`: the z-score was -0.58.

Regarding `COc1ccc(-c2nc(CS(=O)CC(=O)NCCCN3CC(C)CC(C)C3)c(C)o2)cc1OC` (stereo not given), the z-score was 0.621.

`COC(=O)c1c(NC(NC(=O)CC(C)C)C(Cl)(Cl)Cl)sc2c1CCC2` (stereo not given) gave a z-score of 0.202.

For the molecule `CCOC(=O)C1CCCN(C(=O)c2ccc3c(c2)OCO3)C1` (stereo not given), the z-score was -0.377.

On to `CN1CCN(C(=O)c2ccc(CSc3ccc(Cl)cc3)cc2)CC1`, for which the z-score was -0.427.

`COc1ccc(N2C(=O)C(CC(=O)Nc3ccc(F)cc3)N(CCc3cccs3)C2=O)cc1` (stereo not given): the z-score is 0.0987.

On to `N#Cc1c(NCCCO)nc(-c2ccccc2)c2c1CCCC2`, for which the z-score was -0.249.

`CC1CCCN(S(=O)(=O)c2ccc(NC(=O)Cn3nnc(-c4ccccc4F)n3)cc2)C1` (stereo not given) registered a z-score of -0.447.

Regarding `COc1ccc(/C=C/C(=O)N2CCC(c3ccccc3)C2)cc1` (stereo not given), the z-score was -0.418.

Consider `CCOCCCNC(=O)c1[nH]c(C)c(C(C)=O)c1C`, for which the z-score turned out to be 1.3.

The molecule `N#Cc1ccc(NC(=O)COC(=O)CCNS(=O)(=O)c2ccccc2)cc1` registered a z-score of -0.505.

`O=[N+]([O-])c1ccc(N2CCN(S(=O)(=O)c3ccc(Cl)cc3)CC2)cc1NCc1cccnc1` registered a z-score of -0.148.

In turn, `FC(F)(F)c1ccc(Cl)c(NC(=S)N/N=C/c2ccccc2C(F)(F)F)c1` returned a z-score of 1.14.

Molecule `Cc1cc2cc(C(c3nnnn3C(C)(C)C)N(Cc3ccco3)CC3CCCO3)c(=O)[nH]c2cc1C` (stereo not given) gave a z-score of -0.208.

The molecule `OC(CNCc1ccccc1)(c1ccc(F)cc1)c1ccc(F)cc1` displayed a z-score of -0.0331.

`O=C(CCC(=O)OCC(=O)c1ccc(-c2ccccc2)cc1)Nc1cccc2cccnc12` registered a z-score of -0.0975.

With `COc1cc(/C=N/Nc2nc3ccccc3o2)cc(OC)c1O`, the z-score was 0.336.

In the case of `Cc1ccc2cc(C#N)c(SCC(=O)NCc3ccco3)nc2c1`, the z-score is -0.492.

In turn, `Cc1cc(C(=O)CN2CCCC(C)C2)c(C)n1-c1ccc(F)cc1` (stereo not given) displayed a z-score of 0.291.

In turn, `CC(C)CNC(=O)CCCc1c[nH]c2ccccc12` came in with a z-score of -0.801.

Consider `CCC(C)NC(=O)C1CCCN(S(=O)(=O)c2ccc(-n3cnnn3)cc2)C1` (stereo not given), for which the z-score is -0.137.

The molecule `Cc1cc2cc(CNC(=O)c3cc4ccccc4o3)ccc2n1C` registered a z-score of -0.325.

In turn, `O=C(CN1C(=O)CSc2ccccc21)N1CCc2ccccc21` showed a z-score of 0.0819.

`C/C(=N\NC(=O)c1ccc(Cl)c(S(=O)(=O)Nc2ccccc2Cl)c1)c1ccncc1` registered a z-score of -0.516.

Molecule `Cc1nc(NC2=NCN(CCCN3CCOCC3)CN2)nc2c(C)cccc12` showed a z-score of -0.0726.

Regarding `N#CC1=C(N)C(C#N)(C#N)[C@H](c2ccsc2)[C@H]2COCC=C12`, the z-score is -2.94.

Consider `Cc1cc(C)c2c(-n3cccc3)c(NC(=O)OC(C)C)sc2n1`, for which the z-score was found to be 0.00557.

Turning to `CCOC(=O)c1c(C)c(C(=O)Nc2cc(OC)ccc2OC)c(C)n1CC`, the z-score is -0.853.

`Cc1oc2c(c1C(=O)Nc1cccc(C(=O)O)c1)CCCC2` yielded a z-score of -1.27.

The molecule `CN(C)CCNc1nc(-c2ccccc2)nnc1C(F)(F)F` displayed a z-score of 0.00442.

Turning to `O=C(CSc1ncn[nH]1)Nc1ccnc2ccccc12`, the z-score turned out to be 0.336.

Turning to `FC(F)(F)c1nc(Oc2ccccc2)c2ccccc2n1`, the z-score was -0.264.

Consider `O=C(CCn1cccc1)Nc1ccccc1F`, for which the z-score was 0.0734.

`CCN1CCCC1CNC(=O)Cn1cnc2ccc(S(=O)(=O)N3CCC(C)CC3)cc2c1=O` (stereo not given) had a z-score of -0.269.

Molecule `CCOC(=O)Nc1cccc(NC(=O)c2cc(OC)cc(OC)c2)c1` yielded a z-score of -0.454.

`O=C(CN(Cc1ccccc1)S(=O)(=O)c1ccccc1)N/N=C/c1ccccc1[N+](=O)[O-]`: the z-score was -0.136.

Take `COCCNC(=O)c1cc2c(-c3ccc(Cl)cc3)nn(C)c2s1`: the z-score is -0.509.

For `CCOC(=O)N1CCN(C(=O)CNCc2cccs2)CC1`, the z-score was -0.15.

For the molecule `COc1ccc(OC)c2c1sc(=NC(=O)c1ccco1)n2C`, the z-score is -0.674.

For the molecule `CSc1nc2ccc3nc(NC(=O)C4COc5ccccc5O4)sc3c2s1` (stereo not given), the z-score was -0.811.

`CC1=NOC(=O)/C1=C\c1ccc(-c2ccc(Cl)cc2Cl)o1`: the z-score was -0.0912.

Molecule `COc1ccc(OC)c(NC(=O)CSc2nc3c(c(=O)n(C)c(=O)n3C)n2C)c1` returned a z-score of -1.15.

Consider `COc1ccccc1CN1CCN(S(=O)(=O)c2ccccc2)CC1`, for which the z-score worked out at 0.0607.

`CCOC(=O)CSc1nc(N)c2c3c(sc2n1)CCCC3`: the z-score was -1.37.

`O=C(CCN1C(=O)/C(=C/c2ccc(F)cc2)SC1=S)NNC(=O)c1cccnc1` gave a z-score of -0.0239.

In turn, `COc1ccc2[nH]c(O)c(N=NC(=N)N)c2c1` showed a z-score of 0.0859.

Take `Cc1nc([N+](=O)[O-])c(Br)n1CC(=O)c1ccc(Cl)cc1`: the z-score came out at 0.631.

Molecule `Cc1cc(SCC(=O)N(C)CC(=O)Nc2ccc(F)cc2)nc2ccccc12` returned a z-score of -0.218.

In the case of `Nc1c(-c2cccc(Cl)c2)cnn1-c1cccc([N+](=O)[O-])c1`, the z-score was -0.0889.

As to `C=CCNC(=O)c1onc(CSc2ccc(F)cc2)c1C(=O)O`, the z-score was -0.2.

The molecule `CN(C)Cc1ccccc1Sc1ccc(Br)cc1` yielded a z-score of -0.253.

`Cc1nnc(SCC(=O)NCc2ccccc2)n1-c1ccccc1`: the z-score stood at 0.254.

`CC(=O)Nc1ccccc1OCC(=O)NC(C)c1ccccc1` (stereo not given) displayed a z-score of -0.299.

For `CCCCN(C(=O)Nc1ccc(Cl)cc1)C1CCN(C(C)=O)CC1`, the z-score came to 0.0166.

For the molecule `CCCOc1ccc(C(CC(=O)O)NC(=O)c2ccc3c(c2)OCO3)cc1` (stereo not given), the z-score was -0.509.

Regarding `Cc1ccccc1OCC(=O)NC1=NCCS1`, the z-score amounted to 0.0476.

Turning to `C=CCc1ccc(OCC(O)COc2ccc(CC=C)cc2OC)c(OC)c1`, the z-score is -0.174.

On to `CCn1c(SCC(=O)NC2CCCCC2C)nnc1-c1ccc(OC)cc1` (stereo not given), for which the z-score stood at 0.074.

`Cc1c(NS(=O)(=O)CC23CCC(CC2=O)C3(C)C)c(=O)n(-c2ccccc2)n1C` (stereo not given) had a z-score of -0.269.

Molecule `CCCC1CCC(c2ccc(C(N)=O)cc2)CC1` (stereo not given) returned a z-score of -0.0671.

With `Cc1ccc(NC(=S)NCCC(c2ccccc2)c2ccccc2)c(C)c1`, the z-score is 0.245.

With `CCOc1c2ccc(C(=O)NCCCCc3ccccc3)cc2nn1C`, the z-score was found to be 0.0497.

In the case of `O=C(O)c1ccc(Sc2nnnn2-c2ccccc2)c([N+](=O)[O-])c1`, the z-score is -0.96.

`COc1ccc(C(=O)O/N=C(/C)c2cccs2)cc1`: the z-score was -0.391.

For the molecule `Cc1ccc(OCC(=O)c2c(O)c3ccccc3oc2=O)cc1C`, the z-score was 0.229.

Molecule `Cc1ccc(C(=O)OCC(=O)NCc2ccc3c(c2)OCO3)s1` gave a z-score of -0.0586.

Consider `CCOC(=O)c1ccc2[nH]cc(C(C)=O)c(=O)c2c1`, for which the z-score is -0.0976.

On to `CNc1nc(NC)nc(-n2c(C(F)(F)F)nc3ccccc32)n1`, for which the z-score was -0.566.

`Cc1cc(C(=O)CSc2nnc(N)s2)c(C)n1-c1c(C)n(C)n(-c2ccccc2)c1=O`: the z-score was -0.0654.

Molecule `Cn1cnnc1SCC(=O)OCN1C(=O)c2ccccc2C1=O` yielded a z-score of 0.794.

`Cc1cccc(NC2(C(F)(F)F)N=C(c3ccccc3)NC2=O)n1` (stereo not given) had a z-score of -0.0598.

Take `CCOC(=O)c1oc2ccc(CNC(C)(C)C)c(Cl)c2c1C`: the z-score worked out at 0.563.

`CCOc1nc(NC(=O)NS(=O)(=O)c2cccc(Cl)c2)nc(-c2ccccc2)n1` showed a z-score of -0.242.

In turn, `Cc1ccc(S(=O)(=O)N2CCOCC2)cc1NC(=O)COc1ncnc2ccccc12` yielded a z-score of -0.311.

For the molecule `NNc1nc(Nc2ccccc2)nc(N2CCCCC2)n1`, the z-score is -0.323.

The molecule `CN=C(Nc1cc(C)nn1CCC#N)c1ccc(F)cc1` showed a z-score of -0.419.

The molecule `COc1ccc(NC(=O)c2c(C(F)(F)F)nn(C)c2SCc2ccccc2)cc1` showed a z-score of -0.388.

Turning to `Fc1ccc(Sc2nc(-c3ccccc3)nnc2C(F)(F)F)cc1`, the z-score is -0.000337.

As for `COC(=O)c1ccc(CN(C(C)=O)c2ccccc2)o1`, the z-score was -0.52.

For the molecule `CS(=O)(=O)c1ccc2nc(NC(=O)c3cc(-c4ccccc4)nn3-c3ccccc3)sc2c1`, the z-score was 0.0633.

`CCOC(=O)c1ccc(NC(=S)N(CCCN2CCCCCC2)Cc2ccco2)cc1` gave a z-score of 0.0244.

Regarding `COC(=O)CCN(C)CCC(=O)OC`, the z-score came to 0.0875.

The molecule `Cc1cc(C(=O)COc2cccnc2[N+](=O)[O-])c(C)n1-c1ccccc1` displayed a z-score of -0.0167.

`COc1ccc(C(=O)Nc2cccc(-c3nc4ncccc4o3)c2C)cc1` showed a z-score of -0.279.

`COc1ccc(Cl)cc1-n1c(=S)sc2c(=O)[nH]c(SCC(=O)NCC3CCCO3)nc21` (stereo not given) registered a z-score of -0.241.

The molecule `COc1ccc(C(C#N)Nc2ccccc2OC)cc1` (stereo not given) returned a z-score of 0.255.

`CCN(CC)S(=O)(=O)c1ccc(C)c(NC(=O)CSc2nc3ccc(C)cc3[nH]2)c1` came in with a z-score of -0.268.

`O=C(Cn1nc(-c2ccccc2)ccc1=O)NCC1CCCO1` (stereo not given) showed a z-score of -0.249.

In turn, `CCSC(=O)CCCCCCCCCCCO` yielded a z-score of -0.16.

The molecule `Nc1nonc1C(=O)NCCNC(=O)c1ccccc1F` gave a z-score of -0.0271.

`CCCOc1ccc(Cc2c(Cl)nc(SC)nc2OC)cc1` registered a z-score of -0.0544.

For the molecule `COCCn1c(=O)[nH]c(=O)c2c1nc(-c1ccc(-c3ccc(Cl)cc3[N+](=O)[O-])o1)n2Cc1ccccc1`, the z-score is -0.623.

On to `Cc1cccc(N2CCN(CCNC(=O)c3cc4c(s3)CS(=O)(=O)C4)CC2)c1C`, for which the z-score was -0.197.

`COc1ccc(N2CCN(CCNC(=O)CCCn3c(=O)[nH]c4cc(Cl)ccc4c3=O)CC2)cc1` showed a z-score of -0.19.

Regarding `CCOC(=O)c1cc(-c2ccc(F)cc2)n(CC(=O)Nc2nccs2)c1C`, the z-score is -0.293.

`CC(C)C(=O)Nc1cccc(C(=O)N2CCCCC2C)c1` (stereo not given) gave a z-score of -0.0477.

Regarding `CC(C)OC(=O)CSc1nc2cccnc2n1C1CCCCC1`, the z-score is -2.12.

For the molecule `O=C(c1ccc(F)cc1)C1CCN(C(=S)Nc2ccccc2)CC1`, the z-score was -0.612.

As for `CCCCN(C(=O)NC(=O)Nc1cc(C)ccc1C)S(C)(=O)=O`, the z-score worked out at 0.48.

`O=C(Nc1ccccc1)N1N=C(c2cccs2)CC1c1cccs1` (stereo not given) yielded a z-score of 0.278.

On to `CCc1c(C)c2cc(Cl)c(O)c(CN(C)C)c2oc1=O`, for which the z-score is -0.143.

For `CC(C(=O)N/N=C/c1ccc(N(C)C)c(Br)c1)N(c1ccccc1)S(C)(=O)=O` (stereo not given), the z-score was 0.35.

Molecule `Cc1ccc(Nc2nc3ccccc3s2)cc1` returned a z-score of 0.0689.

`Cc1ccnc(SCCn2c(N3CCC(C)CC3)nc3c2c(=O)n(C)c(=O)n3C)n1`: the z-score was -0.0924.

The molecule `CC(=O)c1cccc(NC(=O)C2CCCN(S(C)(=O)=O)C2)c1` (stereo not given) displayed a z-score of -0.0733.

In turn, `O=c1ccc(NS(=O)(=O)c2ccccc2)cn1Cc1ccc(Cl)c(Cl)c1` showed a z-score of -0.157.

As for `Cc1ccc(Cl)cc1N1CCN(Cc2nnnn2Cc2ccco2)CC1`, the z-score amounted to 0.331.

Molecule `CCCC(=O)Nc1ccc(C(=O)Nc2nnc(COC)s2)cc1` showed a z-score of -0.351.

For the molecule `COc1ccc(/C=N/n2c(SC)nnc(C(C)(C)C)c2=O)c(OC)c1`, the z-score worked out at 0.277.

With `Cc1cc2n(n1)C(c1ccc(O)cc1)Nc1ccccc1-2` (stereo not given), the z-score was -0.195.
